PubChem BioAssay AID330 (DTP/NCI, 2004)
Inconclusive results and toxic doses are left out. For part of its entries the source gives two or more results. This list holds those alone. An entry can have further records. Values given together repeat one measurement (runs, samples, wells, individuals or studies).

System: P388 leukemia ip, CD2F1 mice, survival T/C
Experiment: NCI In Vivo Anticancer Drug Screen. Data for tumor model P388 Leukemia (intraperitoneal) in CD2F1 (CDF1) mice
Conditions: endpoint: median survival time, higher = longer survival
[1] = dose: 240.0 mg/kg/injection, schedule: Q01DX005 (ip), vehicle: saline with Tween-80

O=C(O)/C=N/NS(=O)(=O)c1ccc2ccccc2c1
T/C (dose: 100.0 mg/kg/injection, schedule: Q01DX009 (ip), vehicle: other): 90 % of control and 196 % of control

COc1cc2c(cc1O)N=C[C@@H]1CCC(O)N1C2=O (mixture of isomers)
T/C (dose: 4.0 mg/kg/injection, schedule: Q01DX009 (ip), vehicle: saline): 97 % of control and 150 % of control

COc1cccc2c1C(=O)c1c(O)c3c(c(O)c1C2=O)C[C@@](O)(C(=O)CO)C[C@@H]3OC1CC(N)CC(C)O1 (stereo partly specified)
T/C (dose: 0.64 mg/kg/injection, schedule: Q04DX003 (ip), vehicle: saline): 100 % of control and 175 % of control | T/C (dose: 1.08 mg/kg/injection, schedule: Q04DX003 (ip), vehicle: saline): 107 % of control and 181 % of control | T/C (dose: 5.0 mg/kg/injection, schedule: Q04DX003 (ip), vehicle: saline): 111 % of control and 171 % of control

Nc1nc([Se]c2nc(N)nc3c2ncn3C2OC(CO)C(O)C2O)c2ncn(C3OC(CO)C(O)C3O)c2n1 (stereo unspecified)
T/C (dose: 200.0 mg/kg/injection, schedule: Q01DX005 (ip), vehicle: distilled water + Tween-80): 118 % of control and 151 % of control

NCCCNCCCCNC(=O)C(O)NC(=O)CCCCCCN=C(N)N (stereo unspecified)
T/C (dose: 25.0 mg/kg/injection, schedule: Q01DX005 (ip), vehicle: saline): 95 % of control and 162 % of control

CN(C)N=Nc1cn[nH]c1C(N)=O
T/C (dose: 100.0 mg/kg/injection, schedule: Q04DX003 (ip), vehicle: Klucel (hydroxypropylcellulose) (HPC)): 122 % of control and 163 % of control | T/C (dose: 400.0 mg/kg/injection, schedule: Q04DX003 (ip), vehicle: Klucel (hydroxypropylcellulose) (HPC)): 93 % of control, 99 % of control, 165 % of control

COc1cc(C2CC(C)(OC)Oc3cc4c(cc32)OCO4)cc(OC)c1OC (stereo unspecified)
T/C [1]: 104 % of control and 167 % of control

Cc1[nH]c(=O)[nH]c(=O)c1/C=C/C(=O)NC(CO)CS(C)=O (stereo unspecified)
T/C (dose: 32.0 mg/kg/injection, schedule: Q01DX009 (ip), vehicle: water): 110 % of control, 118 % of control, 152 % of control

COc1cccc2c1C(=O)c1c(O)c3c(c(O)c1C2=O)C[C@@](O)(C(C)O)C[C@@H]3OC1CC(N(C)C)C(O)C(C)O1 (stereo partly specified)
T/C (dose: 0.39 mg/kg/injection, schedule: Q01DX009 (ip), vehicle: water): 118 % of control and 151 % of control

CCc1nc(N)nc(N)c1-c1ccc(OC)c([N+](=O)[O-])c1
T/C [1]: 119 % of control and 178 % of control

Cc1cc(N2C(=O)CCSC2=S)ccc1Cl
T/C (dose: 100.0 mg/kg/injection, schedule: Q01DX009 (ip), vehicle: Klucel (hydroxypropylcellulose) (HPC)): 124 % of control and 165 % of control

C/C1=C/C(C)C(O)C(O)C(=O)C2(C)CNC3=C(O2)C(=O)c2c(cc(C)c(O)c2C1=O)C3=O (stereo unspecified)
T/C (dose: 8.0 mg/kg/injection, schedule: Q01DX009 (ip), vehicle: distilled water + Tween-80): 100 % of control, 103 % of control, 151 % of control

O=C1C2C3C=CC(C2C(=O)N1CN1CCOCC1)C1C2C(=O)N(CN4CCOCC4)C(=O)C2C31 (stereo unspecified)
T/C (dose: 100.0 mg/kg/injection, schedule: Q01DX009 (ip), vehicle: saline with Tween-80): 120 % of control and 174 % of control
